Experimental data published in the supplement of paper PMC10126150.
Values marked as one replicate rest on one cluster of the flow cell; about a third of the high ones do not repeat.

Tested on: ATP
Assay: switch fluorescence ratio, 500 uM ATP over buffer (Cy3 cluster intensity, sum of 5 cycles each) (fold (ratio)); higher = stronger signal-on switching upon ATP binding; sequences stand for … in TCGTCGGCAGCGTCAGATGTGTATAAGAGACAGTTTTTTTTTTTTTTTTTTTTTTTTT…TC
Conditions: aptamer strand: ATP DNA aptamer (quencher-CACCTGGGGGAGTATTGCGGAGGAAGG + anchor), 100 nM annealed; ATP concentration: 500 uM; one replicate
How it was run: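 Imaging in selection buffer was followed by imaging after 15 min with 500 uM ATP at 22 °C, for Cy3-labelled switching-strand clusters annealed to 100 nM quencher-labelled ATP aptamer on a modified Illumina MiSeq flow-cell. Five of these buffer/ATP cycles ran, separated by NaOH stripping and re-annealing. The fluorescence ratio per cluster is summed target-cycle over summed buffer-cycle Cy3 intensity, averaged per switch-domain sequence; clusters outside 100-1000 RFU were removed.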
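Further: ATP exposure 15 min at 22 °C before imaging.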

Row | Sequence | switch fluorescence ratio
1 | TTGGACGCAA | 1.38
2 | TATTCGAGA | 1.02
3 | GCCTGATACC | 1.06
4 | GGAGCGCGG | 0.96
5 | TACAGGGGAT | 1.06
6 | TTCGTCGTAG | 1
7 | CGATTTTCAA | 0.995
8 | CAGGACATGG | 0.924
9 | AGCGGCAAAC | 3.22
10 | TCCCGTCGGG | 1.05
11 | GTGTCATGAA | 0.961
12 | CACATCTGCC | 1.08
13 | TTGTTCGAGA | 0.968
14 | CCACGAGAGA | 1.04
15 | GCGCTTTTAG | 1.04
16 | ATGGGAGCAT | 1.04
17 | TGTAGTAGGG | 0.963
18 | GTGTGACGCA | 1.05
19 | AAGGGACCGT | 0.999
20 | AGGGTTTAGG | 1.01
21 | GCATAATATT | 0.992
22 | CTTGGTGTG | 0.984
23 | GGACCGAGGT | 0.978
24 | GAAAAGGCGG | 0.968
25 | CATAAAATA | 0.986
26 | TATTGATCAC | 0.98

Row | Sequence | switch fluorescence ratio
27 | ACATCTGAAA | 1.01
28 | CAAATGGAAA | 0.981
29 | CTGGATCGCT | 1.08
30 | GCGACCGGTC | 1.02
31 | ACTATTCTGG | 0.963
32 | CAGATATATG | 0.995
33 | TCGGAATGCT | 2.7
34 | GGGTTTGGG | 1
35 | TAAGATAAGC | 1.08
36 | GTGGGTCAA | 1.02
37 | TTACATGAT | 0.972
38 | ACTCAAGAAG | 1.13
39 | TTCTCGGAGT | 0.983
40 | AAGGGAATAT | 0.941
41 | GTATGCAGTT | 0.981
42 | ACGCAAATA | 4.25
43 | CTTTGGGTGC | 1.07
44 | GCCTTGACGT | 1.07
45 | GTCTTTCCCT | 0.96
46 | CTTCGGGAAC | 1.49
47 | CGGTTAGCGT | 0.972
48 | CATCTAGAAC | 1.21
49 | AACTAGTTA | 1.02
50 | TTGAAGGTG | 1.3
51 | TTTCCCAAGG | 1.36
52 | ACTTTGCCTA | 1.06

Row | Sequence | switch fluorescence ratio
53 | TGGATACTCG | 1.11
54 | TGATGTTGTG | 0.988
55 | TCTGCAGGGA | 1.07
56 | ACGTAGTGGG | 1.08
57 | CCCAACCCAA | 1.2
58 | CTAATGGGTC | 1.01
59 | TTAAAAGTAC | 1.1
60 | AGTTACATC | 1.04
61 | TTGATGTGCC | 1.03
62 | AGCATAAAAA | 0.995
63 | AAGACACGTT | 0.973
64 | ACAAAGGCA | 0.999
65 | TGATGATGCG | 1.01
66 | CAGACAGTGC | 1.14
67 | GATCCTTAGT | 0.999
68 | CCGGCTAAAA | 1.08
69 | CCCCAAAGG | 1.63
70 | GAAGTCTGCG | 0.96
71 | TGCCGATGT | 0.976
72 | AGAGGAAAGC | 1.01
73 | ATTTCGTCAT | 1.01
74 | TTGGTCTTCT | 0.95
75 | TCTAGGGGTT | 1.02
76 | AACGAGAGCT | 1.04
77 | AGCAGATGGG | 0.985
78 | AGGATACAAC | 1.02

Row | Sequence | switch fluorescence ratio
79 | CTGAACTTA | 1
80 | GGATGGAGGA | 0.944
81 | CCTGATTCGG | 1.01
82 | TTGTTAACGA | 0.966
83 | GACCGGTTTG | 0.995
84 | TCAGTGGGCA | 0.989
85 | CCAGTCACAC | 1.09
86 | CCACTCCGTT | 1.24
87 | CCCAACTTGG | 0.991
88 | ACCCCCGGAT | 1.16
89 | TCCCTTCG | 1.29
90 | GAGCGGGAGG | 1
91 | ATACGGGCGT | 0.998
92 | GGCGTACGT | 0.964
93 | ACAGGAAATT | 1.01
94 | GAGGGTTTTC | 1.04
95 | TTATGAATTC | 0.997
96 | CCGATTGGAC | 1.51
97 | GAGGTCAGTT | 0.961
98 | AGCTTTAGTG | 1
99 | ATGACAAACC | 1.4
100 | CTGGCGGGTT | 1.04
101 | AGTTAATCG | 0.983
102 | ATTATGTGTA | 0.997
103 | CTGGATGTGG | 0.967
104 | GATGGCAGTG | 1.02

Row | Sequence | switch fluorescence ratio
105 | CTCGGCCCTC | 1.26
106 | GTACCCTCGC | 1.09
107 | CGTGCGGGG | 0.971
108 | CGAACAAGTG | 1.04
109 | ATCACTATGA | 0.991
110 | ACCAAGGTTG | 1.06
111 | TAAGGACGCC | 0.999
112 | CGGGAAGCAT | 1.05
113 | TTAGGTTGAG | 0.978
114 | GCTCATCTTA | 1.03
115 | GTACTAGATC | 0.974
116 | ATCACGGTTC | 0.971
117 | CCGCCTAGCC | 2.6
118 | CAACTTTA | 1.11
119 | TTTTCTGAAA | 1.02
120 | TCCTGAGTGT | 1
121 | AGGAATAGGA | 0.993
122 | ACGTAGCCCG | 1.06
123 | AGTCCGTTGT | 0.977
124 | CCTGTCAGTT | 1.02
125 | CGGTTCGATA | 1.06
126 | GGAAATTTT | 0.995
127 | CGGAAACGAT | 1.02
128 | TTACGGTGTG | 0.989
129 | TAGTGCTGCG | 0.978
130 | ATGTGGGCCA | 0.966

Row | Sequence | switch fluorescence ratio
131 | GCCGACGAAT | 1.21
132 | TAAGCGTGCC | 1.04
133 | AGATTAGGAA | 1.01
134 | GGGCGGACGG | 0.993
135 | CTGGCTTCGA | 1
136 | AATTACGCGC | 1.03
137 | TCTACGCCTT | 1.63
138 | AGATCGCAGG | 0.995
139 | CAGGAAGTGG | 0.949
140 | GCGGCGCTGA | 0.988
141 | TATAATTACG | 1.01
142 | GTGTGACAAG | 1.01
143 | CTGGATAGT | 1
144 | GAGGACATGG | 1.18
145 | AGGACAAAAG | 1.02
146 | ATGTAACGAT | 1.03
147 | GGCCGGGGC | 1.01
148 | GGAACTAGCA | 1.03
149 | TGTCTGCCGT | 0.967
150 | TGTGAATCAT | 0.988
151 | TAAGAGCGTC | 0.996
152 | CCTGCTAGTG | 1.06
153 | TCAGATTTGT | 0.982
154 | TAGCCCAGGG | 1.66
